Several values for one entry are separate records, joined by “and”; a condition that tells them apart may be missing. Equal entries are not always repeated. The campaign covered roughly 150,000 compounds. About 6,500 (4.3%) were called active. The shares of active, inactive and inconclusive entries below differ from those in the screen. Calls come from the whole dose curve; as a rule, active = well fitted inhibition curve with a large enough effect (not every such curve was filed as active); inconclusive = small, poorly fitted or top-dose-only effect, or another doubt; inactive = no such curve, though single readings can be large or run the other way. Potencies of inconclusive entries are left out as doubtful fits. More than one record can exist for a structure, and the calls need not agree.
Target: 15-hydroxyprostaglandin dehydrogenase [NAD(+)] (Homo sapiens) (UniProt P15428)
UniProt P15428, sequence (P15428 whole entry, looked up): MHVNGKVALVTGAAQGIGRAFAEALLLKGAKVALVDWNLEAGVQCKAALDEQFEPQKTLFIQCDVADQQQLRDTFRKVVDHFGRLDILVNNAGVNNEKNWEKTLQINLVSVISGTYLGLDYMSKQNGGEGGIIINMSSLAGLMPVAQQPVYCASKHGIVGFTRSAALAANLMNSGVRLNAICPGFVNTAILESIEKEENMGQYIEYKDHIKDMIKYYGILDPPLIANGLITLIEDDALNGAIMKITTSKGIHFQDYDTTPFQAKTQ
Test: qHTS Assay for Inhibitors of HPGD (15-Hydroxyprostaglandin Dehydrogenase)
Details: purified HPGD, NADH fluorescence kinetic, PGE2 substrate; activity change, negative = inhibition: stronger effect = lower value
Procedure, shortened: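 NADH formation kinetics: reaction with 30 uM PGE2 and 1 mM NAD+ (final), 20 nM enzyme, Tris-HCl pH 8 with Tween 20, after 15 min compound preincubation at room temperature. Fluorescence change, last versus first of five reads.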
% is set by controls: 0 for no effect and ±100 for the full control effect; potency is the fitted concentration of half-maximal effect; tags give direction and shape of the fitted curve.

SMILES | Potency | activity change, negative = inhibition
CCOC(=O)c1ccccc1NC(=O)N[C@@H](C)C(=O)OC | inconclusive [inhibitor, partial curve] | 
COC(=O)CC1C(C)(C)C2(O)OC34CC2C(=O)[C@@]1(C)C3CC[C@]1(C)C4=CC(=O)OC1c1ccoc1 (some centres undefined) | inconclusive [inhibitor, partial curve] | 
CCOC(=O)N1CCN(C(=O)CCCn2c(=O)[nH]c3ccccc3c2=O)CC1 |  | inactive: -12.1%
CCOc1ccc2c(c1)sc(=NC(=O)C1CC1)n2C | inconclusive [inhibitor, partial curve, poor fit] | 
c1ccc(C[n+]2cccc3c4ccccc4ccc32)cc1 | inconclusive [inhibitor, partial curve] | 
COC(=O)COc1cc(OCC(=O)OC)c2c(C)c(Cl)c(=O)oc2c1 | inconclusive [inhibitor, partial curve] | 
O=C(Cn1cccc1)Nc1ccc(OC(F)(F)F)cc1 | inconclusive [inhibitor, partial curve] | 
CCN(C(=O)/C=C/c1ccc2c(c1)OCO2)c1ccccc1 | active: 28.2 µM | 
CCCc1nc2sc3c(=O)n(N)cnc3c2c2c1COC(C)(C)C2 |  | inactive: -12.8%
O=S(=O)(NCc1cc(-c2ccc(Cl)cc2)no1)c1ccccc1 |  | inactive: -3.31%
CN(C(=O)COC(=O)c1ccc(Cl)cc1N)C1CCS(=O)(=O)C1 (centres undefined) | inconclusive [inhibitor, partial curve] | 
Cc1ccc(-c2[nH]nc3c2C(c2ccc(OC(=O)N4CCOCC4)cc2)C(C#N)=C(N)O3)cc1 (centres undefined) | inconclusive [inhibitor, partial curve] | 
O=c1c2ccccc2nc(-c2ccccc2)n1CCN1CCOCC1 |  | inactive: -3.19%
O=C(O)CCCC/C=C\C[C@@H](O)/C=C/C=C/C=C\[C@@H](O)CCCC(=O)O |  | inactive: -14.8%
Cc1ccc(S(=O)(=O)N2CCCC(C(=O)Nc3cccnc3)C2)cc1 (centres undefined) |  | inactive: -7.52%
CCOC(=O)c1sc2nc3c(cc2c1N)COC(C(C)C)C3 (centres undefined) | inconclusive [inhibitor, partial curve] | 
CCCNS(=O)(=O)c1ccc(CCC(=O)N2CCCCC2)cc1 | inconclusive [inhibitor, single point] | 
COCC(C)OC(=O)c1c(N)n(CC(C)C)c2nc3ccccc3nc12 (centres undefined) | inconclusive [inhibitor, partial curve] | 
CC1CCC(NC(=O)Nc2cccs2)CC1 (centres undefined) | inconclusive [inhibitor, single point] | 
CC1CCN(C(=O)Nc2ccc3nsnc3c2)CC1 | inconclusive [inhibitor, partial curve] | 
CSc1nc(C)c2c(c1C#N)CCCC2 |  | inactive: -20.2%
CCOC(=O)c1c(N)nn(C(=O)C(C)C)c1-c1ccccc1 |  | inactive: -20.1%
COCCn1c(=N)c(C(=O)NCc2ccco2)cc2c(=O)n3ccccc3nc21 | inconclusive [inhibitor, partial curve] | 
COc1ccc(-n2nnnc2SCC(=O)NCc2ccco2)cc1OC |  | inactive: -18.1%
Cc1ccc2cc(CN(C(=O)c3cccnc3)C(C)C)c(=O)[nH]c2c1 | inconclusive [inhibitor, partial curve] | 

SMILES | Potency | activity change, negative = inhibition
O=C(Nc1cccc(-c2cn3ccccc3n2)c1)C1CC1 | inconclusive [inhibitor, partial curve] | 
CCCCN1CCc2[nH]c(=S)[nH]c(=O)c2C1 | inconclusive [inhibitor, single point] | 
Cc1ccc(CN2C(=O)N/C(=C\c3ccc(N4CCOCC4)cc3)C2=O)cc1 |  | inactive: -8.42%
O=C(c1cccc(F)c1)N1CCC2(CC1)CCN(c1ccncc1)CC2 |  | inactive: -12.9%
Cc1cc(Cl)ccc1Oc1nc(-c2ccc(F)cc2)ccc1C#N | inconclusive [inhibitor, partial curve] | 
CCOC(=O)C1=C(O)c2ccccc2C(=O)/C1=C\c1ccc(C)cc1 | active: 14.1 µM | 
C=CCn1c(-c2cccs2)nc2ccccc21 | inconclusive [inhibitor, partial curve] | 
COc1ccccc1NC(=O)c1nnn(CC(=O)Nc2cccc(SC)c2)c1N | inconclusive [inhibitor, partial curve] | 
Clc1ccc(Nc2ccc(NCc3ccccc3)nn2)cc1 | active: 5.62 µM | 
CCn1cc([N+](=O)[O-])c(C(=O)N2N=C3/C(=C/c4cccs4)CCCC3C2c2cccs2)n1 (centres undefined) | inconclusive [inhibitor, partial curve] | 
O=C(Nc1cccc(F)c1)c1coc(=O)c(Br)c1 | inconclusive [inhibitor, partial curve] | 
Cc1coc2c1C(=O)C(=O)c1c-2ccc2c1CCCC2(C)C | active: 15.8 µM | 
CC(C)c1ccc(S(=O)(=O)N2CCN(C(=S)NCc3ccco3)CC2)cc1 | active: 28.2 µM | 
Cn1c(/N=C/c2c(O)ccc3ccccc23)nc2ccccc21 | inconclusive [inhibitor, full curve] | 
O=C(CCCc1nc2ccccc2s1)NCc1ccc(F)cc1 | active: 25.1 µM | 
O=c1[nH]c(/C(=N\O)c2ccccc2)no1 | inconclusive [inhibitor, partial curve] | 
COc1ccccc1-c1nnc2sc(C3CCCCC3)nn12 | active: 28.2 µM | 
CCOC(=O)Cc1cc(-c2ccccc2)nc2ccc3ccccc3c12 | inconclusive [inhibitor, partial curve] | 
Cc1cccc(CNc2ncncc2-c2cccc(NS(C)(=O)=O)c2)c1 | active: 15.8 µM | 
CN1CCN(NS(=O)(=O)c2cccs2)CC1 |  | inactive: -6.93%
O=C(COc1ccccc1Br)NC1CCCC1 | inconclusive [inhibitor, partial curve, poor fit] | 
CCn1c(=O)c(-[n+]2ccccc2)c(O)c2ccccc21 |  | inactive: -7.23%
Cc1ccc(NC(=O)N2N=C(c3ccc(F)cc3)CC2c2ccc(F)cc2)cc1 (centres undefined) | inconclusive [inhibitor, partial curve] | 
COc1cccc(CC(NC(C)=O)C(=O)NC2CCN(c3nc(C)cc(C)c3C#N)CC2)c1 (centres undefined) | inconclusive [inhibitor, single point] | 
NCCNc1cccc2ccccc12 |  | inactive: -9.94%

SMILES | Potency | activity change, negative = inhibition
O=c1[nH]n(-c2ccc(Cl)cc2)c(=O)c(Cl)c1Cl | inconclusive [inhibitor, partial curve] | 
N#Cc1cc2c(nc1SC1CC(=O)N(c3ccccc3)C1=O)CCC2 (centres undefined) |  | inactive: -0.0873%
CCOC(=O)N1CCN(CC(=O)c2ccc3c(c2)CCN3C(C)=O)CC1 |  | inactive: -2.59%
COc1ccc(-c2nc(Cn3c(SCc4ccc(C)cc4)nc4ccncc43)c(C)o2)cc1OC | inconclusive [inhibitor, partial curve] | 
COc1ccc(C(=O)c2ccccc2)c(O)c1 | active: 14.1 µM and active: 15.8 µM | 
Cc1cc(C)n2nc3nc4c(cc3c2n1)CCCC4 | inconclusive [inhibitor, partial curve] | 
COc1cccc(/C=N/Nc2ncnc3scc(-c4ccccc4)c23)c1OC | active: 17.8 µM | 
Cc1ccc(Cn2nnc3c(=O)n(CC(=O)NCc4ccco4)cnc32)cc1 | inconclusive [inhibitor, partial curve] | 
O=C(CN1C(=O)NC2(CCCC2)C1=O)Nc1cccc(-c2nnc3n2CCCCC3)c1 |  | inactive: -10.5%
O=C(O)CCNc1ncnc2nc[nH]c12 |  | inactive: -2.22%
COc1ccc(S(=O)(=O)CCc2nnc(NC(=O)c3cccs3)s2)cc1 |  | inactive: -2.17%
Cc1sc2ncnc(N3CCN(CCOc4ccc(Cl)cc4)CC3)c2c1C | inconclusive [inhibitor, partial curve, poor fit] | 
O=C(CCc1ccc(CCC(=O)c2cccs2)s1)c1cccs1 | inconclusive [inhibitor, partial curve] | 
CCN1CCN(c2nc(C)nc3c2sc(=S)n3C)CC1 | active: 10 µM | 
COc1ccccc1N1CCN(C(=O)c2cnn3cccnc23)CC1 |  | inactive: -0.459%
Cc1ncc(N=Nc2ccccc2Cl)c(-c2ccccc2)n1 | inconclusive [inhibitor, partial curve, poor fit] | 
CC(C)C1C2=C(CC(C)(C)CC2=O)ON1c1ccccc1 (centres undefined) | inconclusive [inhibitor, partial curve] | 
CCC(C)C(=O)Nc1nnc(-c2cccs2)s1 (centres undefined) | inconclusive [inhibitor, partial curve] | 
Cc1ccc(-c2cc(C(=O)NCc3ccco3)c3ccccc3n2)s1 | inconclusive [inhibitor, single point] | 
CCc1c2c(nc3ccc(OC)cc13)COC2 | inconclusive [inhibitor, partial curve] | 
Cc1cnc(NC(=O)c2cc3c(C)nn(-c4ccccc4)c3s2)s1 | inconclusive [inhibitor, partial curve] | 
O=C(/C=C/c1cc([N+](=O)[O-])ccc1OC(F)F)Nc1cccc(OC(F)F)c1 |  | inactive: -5.8%
O=C(CCl)Nc1cc(-c2ccccc2)nn1-c1ccccc1 |  | inactive: -10.1%
O=c1c(-c2ccc(Cl)cc2)nc2cnc(N3CCNCC3)nc2n1Cc1ccc(F)cc1 | inconclusive [inhibitor, partial curve] | 
